From US20160060354A1 (Sanofi, published 2016)

Molecular target: T1, TEM1 on SJSA-1 and A673 cells (UniProt Q9HCU0 18-757, limits assumed)
T1 sequence (looked up): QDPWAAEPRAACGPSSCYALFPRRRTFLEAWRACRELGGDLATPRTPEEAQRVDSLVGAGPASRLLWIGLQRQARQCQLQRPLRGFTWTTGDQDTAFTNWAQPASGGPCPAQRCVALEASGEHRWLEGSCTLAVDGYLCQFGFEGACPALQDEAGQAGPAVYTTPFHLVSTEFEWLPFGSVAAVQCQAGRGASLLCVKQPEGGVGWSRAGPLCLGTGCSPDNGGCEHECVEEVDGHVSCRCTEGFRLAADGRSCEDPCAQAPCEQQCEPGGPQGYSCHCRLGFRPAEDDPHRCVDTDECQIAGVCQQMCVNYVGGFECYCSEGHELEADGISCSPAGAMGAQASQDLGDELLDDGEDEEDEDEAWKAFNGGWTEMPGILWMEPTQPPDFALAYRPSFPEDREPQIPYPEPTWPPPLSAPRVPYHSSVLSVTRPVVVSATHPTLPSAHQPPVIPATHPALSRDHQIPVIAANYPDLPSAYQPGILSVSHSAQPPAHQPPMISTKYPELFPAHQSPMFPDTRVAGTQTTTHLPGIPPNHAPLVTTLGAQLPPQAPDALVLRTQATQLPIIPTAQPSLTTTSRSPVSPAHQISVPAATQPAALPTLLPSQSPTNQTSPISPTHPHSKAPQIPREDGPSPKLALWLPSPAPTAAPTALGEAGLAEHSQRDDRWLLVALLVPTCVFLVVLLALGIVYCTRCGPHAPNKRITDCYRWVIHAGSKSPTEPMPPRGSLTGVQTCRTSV
Assay: cell-based or functional assay

B1: antiTEM1 A114N-AO-MC-VC-PABC-MMAE (antibody, human IgG1, kappa)
heavy: QVQLQESAPGLVKPSETLSLTCTVSGGSIRSYYWSWIRQPPGKGLEYIGYIYYTGSAIYNPSLQSRVTISVDTSKNQFSLKLNSVTAADTAVYYCAREGVRGASGYYYYGMDVWGQGTTVTVSS[here human IgG1 constant region without letters]
light: not shown
modifications: aminooxy-MC-VC-PABC-MMAE on galactose aldehyde of the glycans (engineered N114, Kabat), DAR 1.72
IC50, cell proliferation assay, A673-DMEM-RPMI cells: 2.2 µg/mL | IC50, cell proliferation assay, A673-RPMI cells: 3.2 µg/mL | IC50, cell proliferation assay, SJSA-1 cells: 3 µg/mL
